Publication PMC6368719
No constants are given. Whether binding was seen depends on the method and setting. Binding seen in cells or lysates may run through a third protein. Some entries that bind do so weakly or less than the wild type. For some assays here: Where a sequence is shown, tags or fusion partners need not be part of it. Blank lines part the entries; values can stand above or below the binder they belong to.

Sequences of proteins named here, by UniProt entry; tags and fusion partners are left off.
UniProt O88427: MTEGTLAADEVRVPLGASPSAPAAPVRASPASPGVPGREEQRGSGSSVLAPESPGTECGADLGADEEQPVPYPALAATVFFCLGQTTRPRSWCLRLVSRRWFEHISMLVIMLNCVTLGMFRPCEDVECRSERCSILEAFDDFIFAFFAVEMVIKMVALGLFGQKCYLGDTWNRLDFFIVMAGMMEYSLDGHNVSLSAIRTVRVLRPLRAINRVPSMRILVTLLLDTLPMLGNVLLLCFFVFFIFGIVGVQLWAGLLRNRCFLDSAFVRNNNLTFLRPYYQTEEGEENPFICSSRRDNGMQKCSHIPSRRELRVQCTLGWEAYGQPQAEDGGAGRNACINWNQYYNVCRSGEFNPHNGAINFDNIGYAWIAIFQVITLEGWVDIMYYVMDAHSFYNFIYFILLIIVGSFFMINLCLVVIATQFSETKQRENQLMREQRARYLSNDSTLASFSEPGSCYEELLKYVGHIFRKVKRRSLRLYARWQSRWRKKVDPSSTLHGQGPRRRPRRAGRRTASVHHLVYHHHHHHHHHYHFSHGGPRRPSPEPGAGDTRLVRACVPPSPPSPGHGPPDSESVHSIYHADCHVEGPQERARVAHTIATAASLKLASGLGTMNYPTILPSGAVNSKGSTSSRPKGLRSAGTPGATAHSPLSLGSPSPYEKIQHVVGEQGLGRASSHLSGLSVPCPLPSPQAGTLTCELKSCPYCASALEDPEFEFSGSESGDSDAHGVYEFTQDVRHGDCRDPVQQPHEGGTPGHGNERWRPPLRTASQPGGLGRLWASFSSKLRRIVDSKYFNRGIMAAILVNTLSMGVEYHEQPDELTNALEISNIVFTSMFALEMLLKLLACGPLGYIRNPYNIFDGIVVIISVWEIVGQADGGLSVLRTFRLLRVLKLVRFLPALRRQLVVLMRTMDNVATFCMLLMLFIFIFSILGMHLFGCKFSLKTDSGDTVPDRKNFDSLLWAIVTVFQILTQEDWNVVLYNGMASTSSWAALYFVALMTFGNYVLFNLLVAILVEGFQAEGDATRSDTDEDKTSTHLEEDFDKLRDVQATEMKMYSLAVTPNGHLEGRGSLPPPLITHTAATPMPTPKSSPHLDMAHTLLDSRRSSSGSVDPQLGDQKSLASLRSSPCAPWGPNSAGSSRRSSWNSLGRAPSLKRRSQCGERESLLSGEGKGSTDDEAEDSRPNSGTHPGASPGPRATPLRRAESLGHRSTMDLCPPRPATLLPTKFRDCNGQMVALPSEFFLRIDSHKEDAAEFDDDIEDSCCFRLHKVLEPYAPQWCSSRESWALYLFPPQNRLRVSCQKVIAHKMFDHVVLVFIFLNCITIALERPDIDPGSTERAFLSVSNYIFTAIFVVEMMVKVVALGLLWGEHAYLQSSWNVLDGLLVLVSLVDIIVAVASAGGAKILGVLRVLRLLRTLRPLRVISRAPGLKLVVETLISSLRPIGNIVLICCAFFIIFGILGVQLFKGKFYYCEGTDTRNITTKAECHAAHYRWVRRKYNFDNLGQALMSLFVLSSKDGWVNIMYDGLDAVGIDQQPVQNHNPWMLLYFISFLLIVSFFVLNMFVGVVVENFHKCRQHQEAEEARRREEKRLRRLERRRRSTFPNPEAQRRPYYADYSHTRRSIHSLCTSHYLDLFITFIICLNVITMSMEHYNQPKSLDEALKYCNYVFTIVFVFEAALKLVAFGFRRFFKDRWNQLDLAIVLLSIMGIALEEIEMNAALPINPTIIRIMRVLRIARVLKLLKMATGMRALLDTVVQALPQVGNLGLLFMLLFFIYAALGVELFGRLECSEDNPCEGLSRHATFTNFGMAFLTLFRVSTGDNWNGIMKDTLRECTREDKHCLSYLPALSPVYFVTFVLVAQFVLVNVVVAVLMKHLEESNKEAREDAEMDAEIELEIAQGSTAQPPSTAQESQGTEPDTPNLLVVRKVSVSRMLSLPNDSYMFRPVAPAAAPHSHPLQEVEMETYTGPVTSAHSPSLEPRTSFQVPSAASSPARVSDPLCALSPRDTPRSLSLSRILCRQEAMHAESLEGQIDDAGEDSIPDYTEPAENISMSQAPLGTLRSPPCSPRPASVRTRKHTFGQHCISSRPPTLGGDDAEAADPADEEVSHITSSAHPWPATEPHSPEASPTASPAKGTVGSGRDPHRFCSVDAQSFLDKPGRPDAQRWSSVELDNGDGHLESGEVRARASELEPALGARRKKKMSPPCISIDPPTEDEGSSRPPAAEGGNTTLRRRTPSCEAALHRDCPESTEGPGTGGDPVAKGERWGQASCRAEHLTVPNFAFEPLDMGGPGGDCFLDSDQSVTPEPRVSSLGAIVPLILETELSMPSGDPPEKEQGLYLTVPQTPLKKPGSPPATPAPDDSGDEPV

Legend:
[1] = biological target: Cav3.2 calcium channel (mouse (endogenous in C57BL/6 tissue)) (UniProt O88427); assay: co-IP; Cav3.2 immunoprecipitated with a polyclonal anti-Cav3.2 antibody from mouse whole brain lysate; western blot for ENaC subunits
[2] = biological target: Cav3.2 calcium channel (mouse (endogenous in C57BL/6 tissue)) (UniProt O88427); assay: co-IP; Cav3.2 immunoprecipitated with a polyclonal anti-Cav3.2 antibody from mouse dorsal horn lysate (modified RIPA buffer, overnight at 4 °C); western blot for ENaC subunits
[3] = biological target: Cav3.2 calcium channel (mouse (endogenous in C57BL/6 tissue)) (UniProt O88427); assay: co-IP; Cav3.2 immunoprecipitated with a polyclonal anti-Cav3.2 antibody from mouse lumbar DRG lysate (modified RIPA buffer, overnight at 4 °C); western blot for ENaC subunits
[4] = biological target: Cav3.2 calcium channel (endogenous in CAD cells) (mouse (endogenous in CAD)) (UniProt O88427); assay: co-IP; Cav3.2 immunoprecipitated from cells transfected with WT or mutant β-ENaC (CAD cells by the text, tsA201 by the legend); western blot for β-ENaC, densitometry

- binding [1]: binds
- binding [2]: binds
- binding [3]: binds
B1: β-ENaC subunit (protein, UniProt Q9WU38 1-638)
chain: MPVKKYLLKCLHRLQKGPGYTYKELLVWYCNNTNTHGPKRIICEGPKKKAMWFLLTLLFACLVCWQWGVFIQTYLSWEVSVSLSMGFKTMNFPAVTVCNSSPFQYSKVKHLLKDLDELMEAVLEKILAPEASHSNTTRTLNFTIWNHTPLVLIDERNPDHPVVLNLFGDSHNSSNPAPGSTCNAQGCKVAMRLCSANGTVCTLRNFTSATQAVTEWYILQATNIFSQVLPQDLVGMGYAPDRIILACLFGTEPCSHRNFTPIFYPDYGNCYIFNWGMTEETLPSANPGTEFGLKLILDIGQEDYVPFLASTAGARLMLHEQRTYPFIREEGIYAMAGTETSIGVLVDKLQRKGEPYSPCTMNGSDVAIKNLYSVYNTTYSIQACLHSCFQDHMIRNCSCGHYLYPLPEGEKYCNNRDFPDWAYCYLNLQMSVTQRETCLSMCKESCNDTQYKMTISMADWPSEASEDWILHVLSQERDQSSNITLSRKGIVKLNIYFQEFNYRTIEESPANNIVWLLSNLGGQFGFWMGGSVLCLIEFGEIIIDFIWITIIKLVASCKGLRRRRPQAPYTGPPPTVAELVEAHTNFGFQPDTTSCRPHGEVYPDQQTLPIPGTPPPNYDSLRLQPLDTMESDSEVEAI

- binding [4]: binds
B2: WT β-ENaC subunit (rat, HA-NT) (protein, UniProt P37090 1-638)
chain: MPVKKYLLKCLHRLQKGPGYTYKELLVWYCNNTNTHGPKRIICEGPKKKAMWFLLTLLFACLVCWQWGVFIQTYLSWEVSVSLSMGFKTMNFPAVTVCNSSPFQYSKVKHLLKDLYKLMEAVLDKILAPKSSHTNTTSTLNFTIWNHTPLVLIDERNPDHPVVLNLFGDSHNSSNPAPGSTCNAQGCKVAMRLCSANGTVCTFRNFTSATQAVTEWYILQATNIFSQVLPQDLVGMGYAPDRIILACLFGTEPCSHRNFTPIFYPDYGNCYIFNWGMTEKALPSANPGTEFGLKLILDIGQEDYVPFLASTAGARLMLHEQRTYPFIREEGIYAMAGTETSIGVLLDKLQGKGEPYSPCTMNGSDVAIQNLYSDYNTTYSIQACLHSCFQDHMIHNCSCGHYLYPLPAGEKYCNNRDFPDWAYCYLSLQMSVVQRETCLSMCKESCNDTQYKMTISMADWPSEASEDWILHVLSQERDQSSNITLSRKGIVKLNIYFQEFNYRTIEESPANNIVWLLSNLGGQFGFWMGGSVLCLIEFGEIIIDFIWITVIKLVASCKGLRRRRPQAPYTGPPPTVAELVEAHTNFGFQPDTTSCRPNAEVYPDQQTLPIPGTPPPNYDSLRLQPLDTMESDSEVEAI

- binding [1]: no binding
B3: α-ENaC subunit (protein, UniProt Q61180 1-699)
chain: MLDHTRAPELNLDLDLDVSNSPKGSMKGNNFKEQDLCPPLPMQGLGKGDKREEQALGPEPSEPRQPTEEEEALIEFHRSYRELFQFFCNNTTIHGAIRLVCSKHNRMKTAFWAVLWLCTFGMMYWQFALLFEEYFSYPVSLNINLNSDKLVFPAVTVCTLNPYRYTEIKEDLEELDRITEQTLFDLYKYNSSYTRQAGGRRRSTRDLRGALPHPLQRLRTPPPPNPARSARSASSSVRDNNPQVDRKDWKIGFQLCNQNKSDCFYQTYSSGVDAVREWYRFHYINILSRLPDTSPALEEEALGSFIFTCRFNQAPCNQANYSQFHHPMYGNCYTFNNKNNSNLWMSSMPGVNNGLSLTLRTEQNDFIPLLSTVTGARVMVHGQDEPAFMDDGGFNVRPGVETSISMRKEALDSLGGNYGDCTENGSDVPVKNLYPSKYTQQVCIHSCFQENMIKKCGCAYIFYPKPKGVEFCDYLKQSSWGYCYYKLQAAFSLDSLGCFSKCRKPCSVTNYKLSAGYSRWPSVKSQDWIFEMLSLQNNYTINNKRNGVAKLNIFFKELNYKTNSESPSVTMVSLLSNLGSQWSLWFGSSVLSVVEMAELIFDLLVITLIMLLHRFRSRYWSPGRGARGAREVASTPASSFPSRFCPHPTSPPPSLPQQGTTPPLALTAPPPAYATLGPSASPLDSAVPGSSACAPAMAL

- binding [1]: binds
- binding [2]: binds
- binding [3]: binds
B4: γ-ENaC subunit (protein, UniProt Q9WU39 1-655)
chain: MAPGEKIKAKIKKNLPVRGPQAPTIKDLMHWYCLNTNTHGCRRIVVSRGRLRRLLWIAFTLTAVALIIWQCALLVFSFYTVSVSIKVHFQKLDFPAVTICNINPYKYSAVSDLLTDLDSETKQALLSLYGVKDVLDSTPRKRREAGSMRSTWEGTPPRFLNLIPLLVFNENEKGKARDFFTGRKRKISGKIIHKASNVMHVHESKKLVGFQLCSNDTSDCATYTFSSGINAIQEWYKLHYMNIMAQVPLEKKINMSYSAEELLVTCFFDGMSCDARNFTLFHHPMYGNCYTFNNRENATILSTSMGGSEYGLQVILYINEDEYNPFLVSSTGAKVLVHQQNEYPFIEDVGTEIETAMSTSIGMHLTESFKLSEPYSQCTEDGSDVPVTNIYNAAYSLQICLYSCFQTKMVEKCGCAQYSQPLPPAANYCNYQQHPNWMYCYYQLYQAFVREELGCQSVCKQSCSFKEWTLTTSLAQWPSEASEKWLLNVLTWDQSQQINKKLNKTDLAKLLIFYKDLNQRSIMESPANSIEMLLSNFGGQLGLWMSCSVVCVIEIIEVFFIDFFSIIARRQWQKAKDWWARRRTPPSTETPSSQQGQDNPALDTDDDLPTFTSAMRLPPAPEAPVPGTPPPRYNTLRLDSAFSSQLTDTQLTNEF
